In all, about 43,000 compounds went through this assay and about 200 (0.47%) were called active. Not shown: some 12% with an inconclusive outcome. Calls follow the shape of the dose curve; as a rule, active = well fitted cell-killing curve with a large enough effect; inconclusive = small, poorly fitted or top-dose-only effect, or effect the other way; inactive = flat fitted curve, though single readings scatter. The list shows a part of the results.
Assay: Cell viability qHTS assay in S16 Pmp22-F2sN cells; also: nearly all actives have a fitted effect of over 65% in size
Conditions: S16 Pmp22-F2sN Schwann cells (luciferase reporters placed in the Pmp22 gene) viability, CellTiter-Glo, 24 h; series mostly up to 57.5 µM; activity change, negative = cytotoxicity: at the top concentration
Outline: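 Seed 500-1,000 S16 Pmp22-F2sN cells per well in phenol-red-free DMEM with 10% heat-inactivated FBS; pin-add 23 nL compound; incubate 24 h at 37C; add CellTiter-Glo, wait 15 min protected from light; read luminescence.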
% is scaled to controls: 0 for no effect and ±100 for the full control effect.

Row | Compound | activity change, negative = cytotoxicity
1 | COc1ccc(-c2nc3scc(CCNS(=O)(=O)c4ccc(F)c(C(F)(F)F)c4)n3n2)cc1OC | inactive: -19.8%
2 | COC(=O)c1scc(-c2ccc(C)cc2)c1S(=O)(=O)Nc1cccc(Cl)c1C | inactive: 10.4%
3 | Cc1ccc(OCCn2cc(C(=O)c3ccco3)c3ccccc32)cc1C | inactive: -29.5%
4 | Cc1ccc(NC(=O)c2cnc(N3CCCCC3)c3ccccc23)cc1Cl | inactive: -5.27%
5 | CCOC(=O)c1sc(NC(=O)C(C)Sc2nc(-c3ccccc3)cc(C(F)(F)F)n2)c(C(=O)OC)c1C (centres undefined) | inactive: 10.5%
6 | CCOc1ccc(C(=O)Nc2ccc(-c3nc4cc(C)ccc4o3)cc2)cc1 | inactive: -2.39%
7 | O=C(CCCCn1c(=O)c2ccccc2n(CC(=O)Nc2ccccc2)c1=O)NCc1ccccc1Cl | inactive: 10.8%
8 | Cc1cccc(N2CCN(S(=O)(=O)c3ccc4oc(=O)c5ncn(C)c5c4c3)CC2)c1C | inactive: -0.814%
9 | CCc1nnc2c3ccccc3nc(Nc3ccccc3OC)n12 | inactive: -0.441%
10 | Cc1c(C)n(Cc2ccccc2)c2ccc(C(=O)NCc3ccc(OC(C)C)cc3)cc12 | inactive: 6.01%
11 | CCN(CC)CCCNC(=O)C1CCN(S(C)(=O)=O)CC1 | inactive: 18%
12 | COc1ccc(Nc2nc3ccc(Cl)cc3n3nnnc23)cc1OC | inactive: -6.59%
13 | COc1ccc(NC(=O)c2ccc(NC(=O)CCS(=O)(=O)c3cccs3)cc2)cc1OC | inactive: 13.6%
14 | CCOC(=O)c1cc(-c2ccccc2)n(CCC(=O)Nc2cc(OCC)ccc2OCC)c1C | inactive: -12.2%
15 | CCn1c(NCc2ccc(OC)c(OC)c2)nc2ccccc21 | inactive: -13.4%
16 | Cc1cccc(NC(=O)CN2C(=O)c3ccccc3Sc3ncccc32)c1C | inactive: 7.25%
17 | Cc1cccc(CCNC(=O)C2CCN(c3ncnc4c3nc3n4CCCCC3)CC2)c1 | inactive: 2.9%
18 | CCOc1ccccc1CNC(=O)c1ccc2c(c1)sc1nc(-c3ccccc3)cn12 | inactive: 8.88%
19 | COc1ccc(CCNC(=O)CSC2=Nc3ccccc3C3=NC(CCC(=O)NCc4ccccc4)C(=O)N23)cc1OC (centres undefined) | inactive: -10.8%
20 | Cc1noc2ncnc(N3CCCC(C(=O)NC(C)C)C3)c12 (centres undefined) | inactive: 4.39%
21 | Cc1ccn2c(c1)nc(=O)c1cc(S(=O)(=O)N3CCCCC3)c(Cl)cc12 | inactive: 8.12%
22 | CCc1ccc(NC(=O)c2sc3nc(C)c(C(=O)Nc4ccc(C)cc4C)c(-c4ccco4)c3c2N)cc1 | inactive: 1.45%
23 | Cc1oc(-c2ccccc2)nc1CNC(=O)NC1CCCCC1 | inactive: 1.82%
24 | Cc1c(NC(=O)c2cc(-c3ccc(Br)cc3)on2)c(=O)n(-c2ccccc2)n1C | inactive: -2.62%

Row | Compound | activity change, negative = cytotoxicity
25 | CCc1ccccc1NC(=O)CN(c1ccc(OC)cc1)S(=O)(=O)c1c(C)n[nH]c1C | inactive: -15.3%
26 | Cc1cccc(-c2nc3scc(CCNS(=O)(=O)c4ccc(F)cc4C)n3n2)c1 | inactive: -1.53%
27 | CCOC(=O)c1c(NC(=O)/C=C/c2ccc(OCC)c(OC)c2)sc2c1CCC2 | inactive: 13.2%
28 | COc1ccc(OC)c(CNC(=O)c2cc3ccc4cccnc4c3[nH]2)c1 | inactive: -5.58%
29 | O=C(Cn1nnc2sc(-c3ccccc3)cc2c1=O)Nc1cccc(C(F)(F)F)c1 | inactive: 17.9%
30 | CC(C)(C)OC(=O)N1CCC(c2nnc(SCc3ccccc3F)o2)CC1 | inactive: 1.97%
31 | O=c1c2oc3ccccc3c2n(Cc2ccccc2)c(=O)n1Cc1ccco1 | inactive: -0.998%
32 | COc1ccc(C)cc1NC(=O)C(=O)NCCc1csc2nc(-c3ccccc3F)nn12 | inactive: 4.89%
33 | Cc1ccccc1Nc1c(-c2c[nH]c3ccccc23)nc2ccccn12 | inactive: 2.29%
34 | CCn1nnc2cc(C(=O)Nc3ccc(C)cc3Br)ccc21 | inactive: -1.81%
35 | COc1cc2c(=O)c(S(=O)(=O)c3ccc(C(C)C)cc3)cn(Cc3ccccc3C)c2cc1OC | inactive: -17.9%
36 | Cc1ccc(C(=O)NCC(c2ccco2)S(=O)(=O)c2ccccc2)cc1C (centres undefined) | inactive: 3.84%
37 | CCOC(=O)c1c(C)c(-c2ccccc2)n(CC(=O)NCc2ccccc2)c1C | inactive: 2.42%
38 | CCOC(=O)c1ccc(NS(=O)(=O)c2ccc3c(c2)CCN3C(=O)CC)cc1 | inactive: -11.3%
39 | COc1ccc(N2CCN(S(=O)(=O)c3cc(Br)cc4c3N(C(=O)C3CC3)CC4)CC2)cc1 | inactive: 8.51%
40 | CC(C)(C)OC(=O)N1CCC(c2c(C(=O)N3CCN(c4ccccn4)CC3)cnn2-c2cccc(F)c2)CC1 | inactive: -0.388%
41 | Cc1ccc(NC(=O)Cn2c(=O)n(Cc3ccco3)c(=O)c3sc4ccccc4c32)c(C)c1 | inactive: 17.7%
42 | COc1ccc(-n2nc(C(=O)N3CCCCC3)c3c4ccccc4n(C)c3c2=O)cc1Cl | inactive: 0.776%
43 | CCOC(=O)c1cc(-c2ccccc2)n(CCC(=O)NCCc2ccc(C)cc2)c1C | inactive: 2.31%
44 | COc1ccc(OC)c(NC(=O)COCc2cc(-c3ccco3)on2)c1 | inactive: -6.04%
45 | O=C(CSc1nccn1Cc1ccccc1)Nc1nc2ccccc2s1 | inactive: 6.88%
46 | Cc1cc(C)c(Cn2c(=O)n(Cc3ccccc3)c(=O)c3c(C)c(C)sc32)c(C)c1 | inactive: 2.47%
47 | O=C(Nc1cccc(C(F)(F)F)c1)c1cc2nc(-c3ccco3)cc(C(F)(F)Cl)n2n1 | inactive: 0.297%
48 | O=C(Nc1nc(-c2ccccc2)ns1)c1ccc(Cl)cc1 | inactive: -0.17%

Row | Compound | activity change, negative = cytotoxicity
49 | Cc1cccc(NC(=O)C(NS(=O)(=O)c2cccc3nsnc23)c2ccccc2)c1C (centres undefined) | inactive: 0.929%
50 | COc1ccccc1N1CCN(C(=O)c2ccc3c(c2)N(Cc2cc(C)ccc2C)C(=O)c2ccccc2S3(=O)=O)CC1 | inactive: -0.257%
51 | CCOC(=O)N1CCc2c(sc(NCc3cccs3)c2C(=O)Nc2cc(Cl)ccc2OC)C1 | inactive: -5.01%
52 | CCN(CC)c1ccc(NC(=O)C2CCN(S(=O)(=O)c3ccc4c(c3)oc(=O)n4C)CC2)c(C)c1 | inactive: 10%
53 | Cc1cc(C)cc(-n2c(SCC(=O)NCc3ccc(F)cc3)nc3c([nH]c4ccccc43)c2=O)c1 | inactive: -5.83%
54 | COc1cc(NC(=O)CSc2nc(-c3ccccc3)no2)cc(OC)c1 | inactive: -17.4%
55 | CCOc1ccc(NC(=O)CN2C(=O)c3ccccc3Sc3ccc(C(=O)OC)cc32)cc1 | inactive: 21.4%
56 | O=C(C1CCC(Cn2c(=O)c3sccc3n(Cc3ccccc3F)c2=O)CC1)N1CCOCC1 (centres undefined) | inactive: -8.25%
57 | COc1cccc(NC(=O)CN2C(=O)CC(c3ccco3)Sc3ccccc32)c1 (centres undefined) | inactive: 9.64%
58 | COC(=O)c1sc(-c2ccccc2)cc1NC(=O)c1cccc(Cl)c1 | inactive: -2.39%
59 | CCc1ccc(NC(=O)N2CCN(Cc3nc4ccc(C)cc4o3)CC2)cc1 | inactive: -15.6%
60 | CCN(CC)C(=O)CN1C(=O)COc2ccc(S(=O)(=O)N3CCOCC3)cc21 | inactive: 0.584%
61 | Cc1ccc(N2CCN(C(=O)c3cn(C)c4ccc(S(=O)(=O)N5CCCC5)cc4c3=O)CC2C)cc1 (centres undefined) | inactive: 2.29%
62 | CC(=O)Nc1ccc(S(=O)(=O)NCC2CCC(C(=O)NCc3ccccc3)CC2)cc1 (centres undefined) | inactive: 0.111%
63 | COc1ccc(NC(=O)Cn2nnc(C(=O)NCc3ccco3)c2N)c(OC)c1 | inactive: -8.71%
64 | COc1ccccc1NC(=O)c1c(C)cc(C)nc1SCC(=O)Nc1ccc(C)cc1 | inactive: -19.9%
65 | CN(C)c1ccc(CNC(=O)C2CCCN(S(=O)(=O)c3ccc4c(ccn4C)c3)C2)cc1 (centres undefined) | inactive: -9.43%
66 | CCOc1ccccc1NC(=O)Cn1c(=O)oc2cc(S(=O)(=O)NCc3ccccc3)ccc21 | inactive: -24%
67 | CCOC(=O)c1sc(NC(=O)C(C)Oc2ccc(OC)cc2)c(C(=O)OCC)c1C (centres undefined) | inactive: 1.63%
68 | COc1ccc(C(=O)Nc2cc(-c3ccccc3)nn2-c2ccccc2)cc1 | inactive: 1.02%
69 | CCOC(=O)c1cccc(NC(=O)c2cc3cc4cc(OC)ccc4nc3s2)c1 | inactive: 8.81%
70 | Cc1ccc(NC(=O)COc2ccc(-c3nn(C)c(=O)c4ccccc34)cc2)cc1 | inactive: 21.3%
71 | COc1ccc(C)cc1NC(=O)CN1C(=O)COc2ccc(S(=O)(=O)N3CCOCC3)cc21 | inactive: 9.03%
72 | CCN1CCC(N(Cc2cccc(OC)c2)C(=O)Nc2cccc(C)c2C)CC1 | inactive: 1.63%

Row | Compound | activity change, negative = cytotoxicity
73 | CC1=Nc2cc(C(=O)NCc3ccc(C)cc3)ccc2Sc2ccc(Cl)cc21 | inactive: -5.1%
74 | COc1ccc(C2N=C(N)Nc3nc4ccccc4n32)c(OC)c1OC (centres undefined) | inactive: -1.45%
75 | COC(=O)C1=C(C)NC(=O)C1(NC(=O)c1ccc(Cl)cc1)C(F)(F)F (centres undefined) | inactive: 1.53%
76 | O=C(Cn1c(=O)oc2cc(S(=O)(=O)N3CCCC3)ccc21)NCc1ccc(Cl)cc1 | inactive: -14.7%
77 | Cc1ccc(NC(=O)c2cn3c4c(ccc(Cl)c4c2=O)OC(C)C3)cc1C (centres undefined) | inactive: 4.23%
78 | CCOCCCNC(=O)c1cc2c(=O)n(C)c3ccccc3c2n1C | inactive: 0.475%
79 | COc1ccc(NC(=O)Cn2c(=O)n(-c3cccc(C)c3)c(=O)c3c2c2cc(C)ccc2n3C)cc1Cl | inactive: 10.7%
80 | O=C(C1CCC(CNS(=O)(=O)c2ccc(Br)s2)CC1)N1CCN(c2ccccc2Cl)CC1 (centres undefined) | inactive: 7.58%
81 | CCOc1cc2sc(N3CCC(C(=O)Nc4ccccc4C(=O)OC)CC3)nc2cc1Br | inactive: 4.04%
82 | Cc1ncc(CO)c2c1Oc1nc(-c3ccccc3)nc(SCC(=O)N3CCCCC3)c1C2 | inactive: 0.82%
83 | CCN(CC)C(=O)Cn1c(=O)n(Cc2ccc(C(=O)NCc3ccc(C)cc3)cc2)c(=O)c2ccccc21 | inactive: 18.7%
84 | COc1ccc(N2CC(NC(=O)C3CC3)CC2=O)cc1 (centres undefined) | inactive: 10%
85 | CC(=O)c1cccc(NC(=O)[C@H](Cc2ccccc2)N2Cc3ccccc3C2=O)c1 | inactive: -12.9%
86 | CCC(NC(=O)Nc1ccc(OC)c(OC)c1)c1c(-n2cccc2)sc2c1CCN(C)C2 (centres undefined) | inactive: 4.73%
87 | Cc1cccc(NC(=O)C2CCCN(S(=O)(=O)c3c(C)[nH]c(=O)[nH]c3=O)C2)c1C (centres undefined) | inactive: -2.31%
88 | COc1cccc(NC(=O)CSc2nc(=O)n(Cc3ccccn3)c3c2CCC3)c1 | inactive: 6.52%
89 | O=c1oc2ccc3ccccc3c2cc1-c1nnc(Nc2ccc(Cl)cc2Cl)s1 | inactive: 1.8%
90 | COc1ccc(CCNC(=O)c2ccc3c(c2)N=C(C)c2cc(C)ccc2S3)cc1OC | inactive: -2.99%
91 | CCc1ccc(NC(=O)Cn2c(=O)c(CNc3ccccc3)cc3cc(OC)c(OC)cc32)cc1 | inactive: -0.309%
92 | COc1ccc2c(c1)c1c(c(=O)n(-c3cccc(Cl)c3)c(=O)n1CC(=O)NCC1CCCO1)n2C (centres undefined) | inactive: -1.18%
93 | CCOc1ccc(NC(=O)CSC2=Nc3ccccc3C3=NC(CCC(=O)NCc4cccs4)C(=O)N23)cc1 (centres undefined) | inactive: 14.2%
94 | CCOc1ccc(-n2cc(-c3ccccc3)c3c(NC4CCCCC4)ncnc32)cc1 | inactive: -15.6%

— PubChem BioAssay AID1508642 (National Center for Advancing Translational Sciences (NCATS), 2021)
